In the supplement of paper PMC4967469:
A lower IC50 marks a more sensitive line; fits outside the tested doses are given as limits. For AUC the same curve is integrated over the 256-fold range of doses and scaled to a fraction: 1 means no effect, lower means more sensitive. For some assays here: Any top dose called inferred was derived from the fitted curves, not read from the paper. For some assays here: An entry number marks a drug with two screens in the source, which often give different values.

Key:
Experiment in all cases: Viability of human cancer cell lines after 72 h of drug (GDSC screen)
CUDC-101 = compound: C#Cc1cccc(Nc2ncnc3cc(OC)c(OCCCCCCC(=O)NO)cc23)c1 [CUDC-101]; conditions: top dose 5.12 µM; top dose inferred
Procedure: (§1)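 Human cancer cell lines in 384-well plates, medium with 10% serum, drug for 72 h over a 256-fold dose range (nine 2-fold or five 4-fold steps up to the top dose). Adherent lines were fixed and stained with the nucleic acid dye Syto60, suspension lines read with resazurin; signal relative to control wells, capped at 0 and 100%. One two-parameter sigmoid per drug and line, fitted in a mixed model over all curves with the slope shared within a line.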

AC220 = compound: CC(C)(C)c1cc(NC(=O)Nc2ccc(-c3cn4c(n3)sc3cc(OCCN5CCOCC5)ccc34)cc2)no1 [AC220]; conditions: top dose 1.024 µM; top dose inferred
Procedure: as §1

RDEA119 = compound: COc1cc(F)c(F)c(Nc2ccc(I)cc2F)c1NS(=O)(=O)C1(C[C@H](O)CO)CC1 [RDEA119]; conditions: top dose 5 µM, top dose inferred
Procedure: as §1

JNK-9L = compound: Fc1cc(-c2ccnc(Nc3ccc(-n4cnc(N5CCOCC5)n4)cc3)n2)cc(N2CCOCC2)c1 [JNK-9L]; conditions: top dose 5.12 µM; top dose inferred
Procedure: as §1

OSU-03012 = compound: NCC(=O)Nc1ccc(-n2nc(C(F)(F)F)cc2-c2ccc3c(ccc4ccccc43)c2)cc1 [OSU-03012]; conditions: top dose 16 µM; top dose inferred
Procedure: as §1

5-Fluorouracil = compound: O=c1[nH]cc(F)c(=O)[nH]1 [5-Fluorouracil]; conditions: top dose 32 µM; top dose inferred
Procedure: as §1

QS11 = compound: OC[C@H](Cc1ccccc1)Nc1nc(Oc2ccc3c(c2)CCC3)nc2c1ncn2Cc1ccc(-c2ccccc2)cc1 [QS11]; conditions: top dose 10.24 µM
Procedure: as §1

| Cell Line | AUC (CUDC-101) | IC50 (CUDC-101) [µM] | AUC (AC220) | IC50 (AC220) [µM] | AUC (RDEA119; screen: GDSC drug entry 1014) | IC50 (RDEA119; screen: GDSC drug entry 1014) [µM] | AUC (RDEA119; screen: GDSC drug entry 1526) | IC50 (RDEA119; screen: GDSC drug entry 1526) [µM] | AUC (JNK-9L) | IC50 (JNK-9L) [µM] | AUC (OSU-03012) | IC50 (OSU-03012) [µM] | AUC (5-Fluorouracil) | IC50 (5-Fluorouracil) [µM] | AUC (QS11) | IC50 (QS11) [µM] |
| --- | --- | --- | --- | --- | --- | --- | --- | --- | --- | --- | --- | --- | --- | --- | --- | --- |
| NCI-H1770 (non-small cell lung carcinoma, suspension) | 0.615 | 0.636 | 0.992 | > 1.02 | 0.988 | > 5 | 0.992 | > 5 | 0.572 | 0.49 | 0.737 | 4.27 | 0.864 | 22.4 | 0.875 | 7.92 |
| NCI-H1781 (lung adenocarcinoma, adherent) | 0.664 | 0.916 | 0.989 | > 1.02 | 0.987 | > 5 | 0.972 | > 5 | 0.613 | 0.654 | 0.898 | > 16 | 0.957 | > 32 | 0.974 | > 10.2 |
| NCI-H1792 (lung adenocarcinoma, adherent) | 0.912 | > 5.12 | 0.984 | > 1.02 | 0.744 | 1.44 | 0.579 | 0.503 | 0.704 | 1.12 | 0.869 | 12.4 | 0.98 | > 32 | 0.974 | > 10.2 |
| NCI-H1793 (lung adenocarcinoma, adherent) | 0.833 | > 5.12 | 0.982 | > 1.02 |  |  | 0.878 | > 5 | 0.683 | 1.29 | 0.855 | > 16 | 0.978 | > 32 | 0.981 | > 10.2 |
| NCI-H1836 (small cell lung carcinoma, suspension) | 0.537 | 0.409 | 0.984 | > 1.02 | 0.987 | > 5 | 0.986 | > 5 | 0.805 | 2.89 | 0.863 | > 16 | 0.872 | > 32 | 0.967 | > 10.2 |
| NCI-H1838 (lung adenocarcinoma, adherent) | 0.868 | > 5.12 | 0.956 | > 1.02 | 0.932 | > 5 | 0.941 | > 5 | 0.944 | > 5.12 | 0.983 | > 16 | 0.905 | > 32 | 0.984 | > 10.2 |
| NCI-H1869 (lung squamous cell carcinoma, adherent) | 0.805 | 2.98 | 0.978 | > 1.02 | 0.787 | 2.49 | 0.882 | > 5 | 0.654 | 0.908 | 0.775 | 7.15 | 0.954 | > 32 | 0.979 | > 10.2 |
| NCI-H1944 (lung adenocarcinoma, adherent) | 0.509 | 0.338 | 0.977 | > 1.02 | 0.68 | 1.04 | 0.742 | 1.63 | 0.471 | 0.265 | 0.747 | 5.42 | 0.69 | 7.09 | 0.923 | > 10.2 |
| NCI-H1975 (lung adenocarcinoma, adherent) | 0.708 | 1.36 | 0.983 | > 1.02 | 0.773 | 2.23 | 0.826 | 3.62 | 0.438 | 0.212 | 0.738 | 5.35 | 0.772 | 14.2 | 0.983 | > 10.2 |
| NCI-H1993 (lung adenocarcinoma, adherent) | 0.652 | 0.973 | 0.85 | > 1.02 | 0.983 | > 5 | 0.82 | 4.13 | 0.693 | 1.33 | 0.982 | > 16 | 0.962 | > 32 | 0.982 | > 10.2 |
| NCI-H2009 (lung adenocarcinoma, adherent) | 0.905 | > 5.12 | 0.986 | > 1.02 | 0.685 | 1.06 | 0.813 | 2.9 | 0.527 | 0.381 | 0.611 | 2.05 | 0.926 | > 32 | 0.912 | > 10.2 |
| NCI-H2023 (lung adenocarcinoma, adherent) | 0.851 | > 5.12 | 0.965 | > 1.02 | 0.881 | > 5 | 0.803 | 3.22 | 0.798 | 3.15 | 0.821 | 12.5 | 0.906 | > 32 | 0.884 | > 10.2 |
| NCI-H2029 (small cell lung carcinoma, adherent) | 0.694 | 1.05 | 0.99 | > 1.02 |  |  | 0.992 | > 5 | 0.798 | 2.16 | 0.916 | > 16 | 0.924 | > 32 | 0.992 | > 10.2 |
| NCI-H2030 (lung adenocarcinoma, adherent) | 0.658 | 0.939 | 0.96 | > 1.02 | 0.86 | > 5 | 0.625 | 0.725 | 0.45 | 0.23 | 0.735 | 5.2 | 0.834 | 25.1 | 0.78 | 4.84 |
| NCI-H2052 (mesothelioma, adherent) | 0.92 | > 5.12 | 0.971 | > 1.02 | 0.905 | > 5 |  |  | 0.619 | 0.749 | 0.806 | 11 | 0.928 | > 32 | 0.978 | > 10.2 |
| NCI-H2081 (small cell lung carcinoma, suspension) | 0.842 | 3.92 | 0.955 | > 1.02 | 0.988 | > 5 | 0.979 | > 5 | 0.752 | 1.78 | 0.808 | 8.84 | 0.908 | > 32 | 0.948 | > 10.2 |
| NCI-H2085 (lung adenocarcinoma, adherent) | 0.721 | 1.44 | 0.975 | > 1.02 | 0.872 | > 5 | 0.921 | > 5 | 0.644 | 0.83 | 0.724 | 4.6 | 0.716 | 8.63 | 0.986 | > 10.2 |
| NCI-H2110 (non-small cell lung carcinoma, adherent) | 0.583 | 0.545 | 0.983 | > 1.02 | 0.899 | > 5 | 0.87 | 4.83 | 0.603 | 0.619 | 0.735 | 4.78 | 0.766 | 12.1 | 0.909 | > 10.2 |
| NCI-H2122 (lung adenocarcinoma, adherent) | 0.818 | 2.64 | 0.987 | > 1.02 |  |  | 0.714 | 1.2 | 0.482 | 0.286 | 0.71 | 3.74 | 0.943 | > 32 | 0.711 | 2.42 |
| NCI-H2135 (non-small cell lung carcinoma, adherent) | 0.624 | 0.694 | 0.981 | > 1.02 | 0.991 | > 5 | 0.99 | > 5 | 0.701 | 1.15 | 0.799 | 7.44 | 0.764 | 11.3 | 0.933 | > 10.2 |
| NCI-H2141 (small cell lung carcinoma, suspension) | 0.799 | 2.38 | 0.987 | > 1.02 | 0.99 | > 5 | 0.989 | > 5 | 0.675 | 0.967 | 0.799 | 7.41 | 0.891 | > 32 | 0.96 | > 10.2 |
| NCI-H2170 (lung squamous cell carcinoma, adherent) | 0.785 | 2.3 | 0.983 | > 1.02 |  |  | 0.985 | > 5 | 0.545 | 0.428 | 0.723 | 4.46 | 0.903 | > 32 | 0.904 | > 10.2 |
| NCI-H2172 (non-small cell lung carcinoma, adherent) | 0.978 | > 5.12 | 0.911 | > 1.02 | 0.957 | > 5 | 0.959 | > 5 | 0.779 | 2.89 | 0.881 | > 16 | 0.959 | > 32 | 0.969 | > 10.2 |
| NCI-H2227 (small cell lung carcinoma, semi-adherent) | 0.153 | 0.0225 | 0.98 | > 1.02 | 0.836 | 3.93 | 0.974 | > 5 | 0.948 | > 5.12 | 0.812 | 9.95 | 0.913 | > 32 | 0.986 | > 10.2 |
| NCI-H2228 (lung adenocarcinoma, adherent) | 0.845 | > 5.12 | 0.925 | > 1.02 |  |  | 0.838 | > 5 | 0.564 |  | 0.783 | 10.8 | 0.906 | > 32 | 0.914 | > 10.2 |
| NCI-H2291 (lung adenocarcinoma, adherent) | 0.981 | > 5.12 | 0.952 | > 1.02 | 0.542 | 0.426 | 0.401 | 0.15 | 0.983 | > 5.12 | 0.982 | > 16 | 0.984 | > 32 | 0.984 | > 10.2 |
| NCI-H2342 (lung adenocarcinoma, adherent) | 0.87 | > 5.12 | 0.984 | > 1.02 | 0.963 | > 5 | 0.973 | > 5 | 0.562 | 0.48 | 0.536 | 1.26 | 0.975 | > 32 | 0.761 | 3.98 |
